The values that follow come from PubChem BioAssay (NCATS).

Where “and” joins values, the source holds several entries; their conditions need not be identical. Equal entries are not always repeated. The list shows a part of the results. The main result of the screen is listed elsewhere. These columns were measured beside it and carry no call. The list favours compounds with an active or inconclusive main result. Potencies come from curve fits of mixed quality, noted in brackets.
Tags describe the fitted curve by direction and shape.

The nature of the first experiment: qHTS Assay for Lipid Storage Modulators (AID 1519). To be noted: Drosophila S3 cells, BODIPY lipid droplet/cell ratio, laser cytometry; measured here: lipid (BODIPY) channel AC50; cells loaded with oleic acid. Summed up: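 Cells seeded at 5,000 per well were treated with compounds over a concentration series and loaded with oleic acid (400 uM, as added). Lipid droplet fluorescence (488 nm excitation, 500-530 nm channel) was read by laser-scanning cytometry and normalized to 20 uM Triacsin C.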
Regarding `CNC1C(O)C2OC3OC(C)CC(=O)[C@@]3(O)O[C@H]2[C@H](NC)C1O` (stereo partly specified), the AC50 is 39.8 µM [rising, single point].

On to `CO[C@@]1(NC(=O)Cc2cccs2)C(=O)N2C(C(=O)O)=C(COC(N)=O)CSC21` (stereo partly specified), for which the AC50 is 39.8 µM [rising, single point]. On the same count and under the same terms, next, `CCNc1ncc2ncc(=O)n(CCc3ccccc3)c2n1`: 0.0178 µM [rising, full curve, poor fit]; `CCOc1ccc2nc3cc(N)ccc3c(N)c2c1`: 6.31 µM [rising, partial curve, poor fit]. For the compound `COc1ncc2nc(-c3ccc(F)cc3)c(=O)n(Cc3ccc(F)cc3)c2n1`, the AC50 was 0.355 µM [rising, full curve, poor fit]. On to `CC[C@H](C)N(C)C(=O)c1cc2ccccc2c(-c2ccccc2Cl)n1`, for which the AC50 is 12.6 µM [rising, partial curve, poor fit].

The experiment is the same for the next values; noted with them: Drosophila S3 cells, BODIPY lipid droplet/cell ratio, laser cytometry; measured here: lipid channel max response; cells loaded with oleic acid.
For `CS(=O)(=O)N1CCC[C@@]2(CCN(c3ncccn3)C2)C1`, the max response stood at 35%. The same measure, in the same setting: next, `COc1ccc(-c2cc(=O)c3ccccc3o2)cc1`: 45.1%; `O=c1cc(-c2ccc(O)cc2O)oc2ccccc12`: 94.6%. On the same count and under the same terms, next, `O=C(O)c1nc2cc(Cl)c(Cl)cc2[nH]c1=O`: 33.4%. For `Cc1cnc(CNc2cc(-c3ccccc3CN(C)C)ncn2)cn1`, the max response came to 31.6%. For the compound `O=c1c(-c2cccc(F)c2)nc2cncnc2n1Cc1ccccc1Cl`, the max response is 18.3%. On to `O=C(O)[C@H]1[C@H]2C[C@H]3c4[nH]c5ccccc5c4CCN3C[C@@H]2CC[C@@H]1O`, for which the max response is 78%. Consider `CN(Cc1ccco1)c1ncncc1-c1ccccc1C(F)(F)F`, for which the max response worked out at 35.1%.

`CN(C)c1ncc2nc(-c3ccccc3)c(=O)n(CCC#N)c2n1`: the max response is 29.2%. Regarding `O=c1cnc2cnc(Oc3ccccc3)nc2n1Cc1ccc(F)cc1`, the max response was 43.9%.

In the case of `CS(=O)(=O)Nc1cccc(-c2ccc3ncnc(N4CCOCC4)c3c2)c1`, the max response is -36%.

In the case of `Cn1c(=O)c(-c2ccc(Cl)cc2)nc2cnc(Oc3ccccc3)nc21`, the max response is 15.4%. For the compound `O=c1c(-c2cc(F)cc(F)c2)nc2cnc(N3CCOCC3)nc2n1-c1ccccc1`, the max response is 28.9%. Still for that read-out and setting: to `CC(C)[C@@H]1C(=O)N(S(C)(=O)=O)[C@H]2CCN(C(=O)/C=C\CN3CCCCC3)[C@@H]12` belongs -19.3%; to `O=C(c1cnccn1)N1CCC2(CCCN(Cc3nccs3)C2)CC1`, 33.9%; to `Cc1noc(C)c1-c1nc(NCc2ccccc2)c2ccccc2n1`, 10.6%.

`CCCCCCCCCCCCCCCC[N+](C)(C)CCN(Cc1ccc(OC)cc1)c1ncccn1`: the max response was -95.8%.

On to `COc1cccc(Cn2c(=O)c(-c3cc(F)cc(F)c3)nc3cncnc32)c1`, for which the max response worked out at 6.43%. As to `O=c1cc(-c2ccc(O)cc2)oc2cccc(O)c12`, the max response was 103%.

As to `N#Cc1cccc(NC(=O)N2CCCC3(CCN(C(=O)c4cc(C(F)(F)F)cc(C(F)(F)F)c4)CC3)C2)c1`, the max response was determined as 15.7%. As to `C1COC(NC(C2CC2)C2CC2)=N1`, the max response is 32.2% and 52.4%.

Turning to `CC(C)NC(=O)N1CCC2(CC1)CCN(C(=O)c1cccn1C)CC2`, the max response came to 30%.

As to `CCNc1ncc2nc(-c3cccs3)c(=O)n(-c3ccc(OC)cc3)c2n1`, the max response was -8.87%. On the same count and under the same terms, to `O=C(c1cnccn1)N1CCC2(CC1)CCN(c1cccc(-c3ccccc3)c1)CC2` belongs 9.26%; to `Cc1cnc(CNc2ncncc2-c2ccccc2C)cn1`, 36.7%. As to `COc1ccccc1N1CCN(CCN2C(=O)c3ccccc3C(C)(C)C2=O)CC1`, the max response amounted to 114%.

For `O=c1c(-c2ccc(Cl)cc2)nc2cnc(N3CCNCC3)nc2n1CCc1ccccc1`, the max response is -45.7%.

In the case of `CN1CCN2c3ccccc3Cc3ccccc3[C@@H]2C1`, the max response was found to be 35.3%.

As for `COCCn1c(=O)cnc2cnc(Oc3cccc(Cl)c3)nc21`, the max response turned out to be 30%. Still for that read-out and setting: next, `Cc1ccccc1-c1nc(NC2CC2)c2ccccc2n1`: 28.4%. Regarding `COC(=O)N1CCC2(CC1)CCN(c1cccc(-c3ccccc3)c1)CC2`, the max response is 21.5%. On the same count and under the same terms, next, `COCC(=O)N1CCC2(CCCN(c3cccc(-c4ccccc4)c3)C2)CC1`: -44.7%. Still for that read-out and setting: next, `CNC1C(O)C2OC3OC(C)CC(=O)[C@@]3(O)O[C@H]2[C@H](NC)C1O` (stereo partly specified): 46.2%; `O=C(Oc1ccccc1)N1CCC2(CCCN(c3ccc(-c4ccccc4)cc3)C2)CC1`: -93%.

With `CO[C@@]1(NC(=O)Cc2cccs2)C(=O)N2C(C(=O)O)=C(COC(N)=O)CSC21` (stereo partly specified), the max response stood at 32.4%. On the same count and under the same terms, to `CCNc1ncc2ncc(=O)n(CCc3ccccc3)c2n1` belongs 23.1%. On the same count and under the same terms, next, `COc1ccc2[nH]cc(CCNc3ncncc3-c3ccc4c(c3)OCO4)c2c1`: -23.6%. The same measure, in the same setting: to `CCOc1ccc2nc3cc(N)ccc3c(N)c2c1` belongs 33.2%. For `COc1ncc2nc(-c3ccc(F)cc3)c(=O)n(Cc3ccc(F)cc3)c2n1`, the max response amounted to 30%.

In the case of `CC[C@H](C)N(C)C(=O)c1cc2ccccc2c(-c2ccccc2Cl)n1`, the max response amounted to 59.4%.

What is called AC50 is the midpoint of the concentration-response curve, whichever way the signal moves.
